Source: the RNAGym collection of RNA variant scans (doi:10.1073/pnas.2313332121)
Variants at the background level are over-represented here.

B1: TPR 5TU (parent)
chain: GGAUCUUCUCGAUCUAACAAAAAAGACAAAUCUGCCACAAAGCUUGAGAGCAUCUUCGGAUGCAGAGGCGGCAGCCUUCGGUGGCGCGAUAGCGCCAACGUUCUCAACUAUGACACGCAAAACGCGUGCUCCGUUGAAUGGAGUUUAUCAUG

Variants of: B1
Test: polymerase ribozyme fitness, log enrichment relative to wild type (log ratio); higher = more active; in vitro selection for triplet polymerase activity
In short: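 Input and output libraries were sequenced on Illumina after a single in vitro selection round, run in triplicate on PCR-built, transcribed mutant libraries of each subunit of a heterodimeric triplet polymerase ribozyme. Selection annealed libraries to a biotinylated primer, the partner subunit and triplets, incubated them frozen at −7 °C, then gel-excised extended constructs for streptavidin-bead capture and RT-PCR. Genotypes with ≥10 input reads and ≥1 read per output were kept. Fitness is the logarithm, taken in base 2, of genotype enrichment divided by wild-type enrichment, using inverse-variance-weighted replicate averages.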

Point of comparison: GGAUCUUCUCGAUCUAACAAAAAAGACAAAUCUGCCACAACGCUUGCGAGCAUCUUCGGUUGCAGAGGCGGCAGCCUUCGGUGGCGCGAUAGCGCCAACGUUCUCAACUAUGACACGCAAAACGCGUGCUCCGUUGAAUGGAGUUUAUCAUG, “polymerase ribozyme fitness (log ratio)” value -2.01. Against it:
- GGAUCUUCUCGAUCUAACAAAAAAGACAAAUCUGCCACAUAGCUUGAGAGCAUCUUCGGAAGCAGAGGCGGCAGCCUUCGGUGGCGCGAUAGCGCCAACGUUCUCAACUAUGACACGCAAAGCGCGUGCUCCGUUGAAUGGAGUUUAUCAUG — higher, -1.1
- GGAUCUUCUCGAUCUAACAAAAAAGACAAAUCUGCCACAUAGCUUGAGAGCAUCUUCGGAAGCAGAGGCGGCAGCCUUCGGUGGCGCGAUAGCGCCAACGUUCUCAACUAUGACACUCAAAACGCCUGCUCCAUUGAAUGGAGUUUAUCAUG — lower, ≤ -4.2
- GGAUCUUCUCGAUCUAACAAAAAAGACAAAUCUGCCACAUAGCUUGAGAGCAUCUUCGGAUGCAGAGGCGGCAGCCAUCGGUGGCGCGAUACCGCCAACGUUCUCAACUAUGACACGCAAAACACGUGCUCCGUUGAAUGGAGUUUAUCAUG — lower, ≤ -4.2
- GGAUCUUCUCGAUCUAACAAAAAAGACAAAUCUGCCACAUAGCUUGAGAGCAUCUUCGGAUGCAGAGGCGGCAGCCAUCGGAGGCGCGAUAGCGCCAACGUUCUCAACUAUGACACGCAAAACGCGUGCUCCGUUGAAUGGAGUUUAUCAUG — lower, ≤ -4.2
- GGAUCUUCUCGAUCUAACAAAAAAGACAAAUCUGCCACAUAGCUUGAGAGCAUCUUCGGAUGCAGAGGCGGCAGCCCUCGGUGGUGCGAUAGCGCCAACGUUAUCAACUAUGACACGCAAAACGCGUGCUCCGUUGAAUGGAGUUUAUCAUG — lower, ≤ -4.2
- GGAUCUUCUCGAUCUAACAAAAAAGACAAAUCUGCCACAUAGCUUGAGAGCAUCUUCGGAUGCAGAGGCGGCAGCCUGCGGUGGCGCGAUAGCGCUAACGUUCUCAACUAUGUCACGCUAAACGCGUGCUCCGUAGAAUGGAUUUUAUCAUG — lower, ≤ -4.2
- GGAUCUUCUCGAUCUAACAAAAAAGACAAAUCUGCCACAUAGCUUGAGAGCAUCUUCGGAUGCAGAGGCGGCAGCCUUCGGUGGCGCGAUAGCGCCAACGGUCUCAACUAUGCCACGCAAAACGCGUGCUCCGUUGAAUGGAGUUUAUCAUG — lower, ≤ -4.2
- GGAUCUUCUCGAUCUAACAAAAAAGACAAAUCUGCCACAUAGCUUGAGAGCAUCUUCGGAUGCAGAGGCGGCAGCCUUCGGUGGCGCGAUAGCGCCAACGUUCUCAACAAUGACACGCAAAACGCGUGCUCCGUUGAAUGGAGUUUAUCAUG — within 0.2 log units, -1.86
- GGAUCUUCUCGAUCUAACAAAAAAGACAAAUCUGCCACAACGCUUGCGAGCUUCUUCGGAUGCAGAGGCGGCAACCUUCGGUGGCGCGAUAGCGCCAACGUGCUCAACUAUGACACGCUAAACGCGUGCUCCGUUCAAGGGAGUUGAUCAUG — lower, ≤ -4.2
- GGAUCUUCUCGAUCUAACAAAAAAGACAAAUCUGCCACAACGCUUGCGAGCAUCUUCGGUUGCAGAGGCGGCAGCCUUCGGUGGCGCGAUAGCGCCAACGUUCUCAACUAUGACACGCAAAACGCGUGCUCCGUUGAAUGGAGUUUACCAUG — lower, ≤ -4.2
- GGAUCUUCUCGAUCUAACAAAAAAGACAAAUCUGCCACAACGCUUGCGAGCAUCGUCGGAUGCAGAGGCGGCAGCAUUCGCUGGCGGGAUAGCGCAAACGUUCUCAACUAUGACACGCAAAACGCUUGCUCCGUUGAAUGGAGUUUAUCAUG — lower, ≤ -4.2
- GGAUCUUCUCGAUCUAACAAAAAAGACAAAUCUGCCACAACGCUUGGGAGCAUCUUCGGAUGCAGAGGCGGCAGCCUUCGGUGGCGCGAUAGCGCCAACGUUCUCAACUAUGACACGCAAAACGCGUGCUCCGUUGAAUGGAGUUUAUCAUG — higher, -0.27
- GGAUCUUCUCGAUCUAACAAAAAAGACAAAUCUGCCACAACGCUUGAGCGCAUCUUCGGAUGCAGAGGCGGCAGACUUCGGUGGCGCGAUAGCGACAACGUUCUCAACUAUGACACGCAAAACGCGUGCUCCGUUGAAUGGAGUUUAUCAUG — lower, ≤ -4.2
- GGAUCUUCUCGAUCUAACAAAAAAGACAAAUCUGCCACAACGCUUGAGUGCAUCUUAGGAUGCAGAGGCGGCAGCCUUCGGUGGCGCUAUAGCGCCAACGCUCUCAACUAUGACACGCAAAACGCGUGCUCCAUUGAAUGGAGUUUAUCAUG — lower, ≤ -4.2
- GGAUCUUCUCGAUCUAACAAAAAAGACAAAUCUGCCACAACGCUUGAGUGCAACUUCGGAUGCAGAGGUGGUAGCCUUCGGUGGCGCGAUAGCGCCAACGUUCUCAACAAUGACACGCAAAACGCGUGCUCCGUUGAAAGGAGUUUAUCAUG — lower, ≤ -4.2
- GGAUCUUCUCGAUCUAACAAAAAAGACAAAUCUGCCACAACGCUUGAGAGCCUCUUCGGAUGAAGCGGCGGCAGCCUUCGGUCGCGCGAUAGCGCCAACGUUCUCAACUAUGUCACGCAAAACGCGUGCUCCGUUGAAUGGAGUCUAUCAUG — lower, ≤ -4.2
- GGAUCUUCUCGAUCUAACAAAAAAGACAAAUCUGCCACAACGCUUGAGAGCAUCUUCGGGUGCAGAGGUGGCAGCCUUCGGUAGCGCGAUAGCGCCAACGUUCUCAACUAUGACACGCGAAACGCGUGCUCCGUUGAAUGGAGUUUAUCAAG — lower, ≤ -4.2
- GGAUCUUCUCGAUCUAACAAAAAAGACAAAUCUGCCACAACGCUUGAGAGCAUCUUCGGAUGCAGGGGCGGCAGUCUUCGGUGGCGCGAUAGCUCCAACGUUCCCAGCUAUGGCACGCAAAACGCGUGCUCCGUUGAAUGGAGUUUAUCAUG — lower, ≤ -4.2
- GGAUCUUCUCGAUCUAACAAAAAAGACAAAUCUGCCACAACGCUUGAGAGCAUCUUCGGAUGCAGAGGCGGCUGCCUUCGGUGGCGCGAUAGCCCCAACGUUCUCAACUAUGACACGCAAAACGCGUGCUCCGUUGAAUGGAGUUUAUCAUG — lower, ≤ -4.2
- GGAUCUUCUCGAUCUAACAAAAAAGACAAAUCUGCCACAACGCUUGAGAGCAUCUUCGGAUGCAGAGGCGGCUGCCUUCGGUGGCGCGAUAGCGCCAACGUGCUCAACUAUGACACGCAAAACACGUGCUCCGUUGAAUGGAGUUUAUCAUG — lower, ≤ -4.2
- GGAUCUUCUCGAUCUAACAAAAAAGACAAAUCUGCCACAACGCUUGAGAGCAUCUUCGGAUGCAGAGGCGGCAGCCUUCGGUGGCGCGAUUGCGCCAACGUUCUCGACUAUGACACGCAAAACACGUGCUCCGUUGAAUGGAGUUUAUCAUG — lower, ≤ -4.2
- GGAUCUUCUCGAUCUAACAAAAAAGACAAAUCUGCCACAACGCUUGAGAGCAUCUUCGGAUGCAGAGGCGGCAGCCUUCGGUGGCGCGAUAGCGCCAACGUUCUCAGCUAUGACACGCAAAACGCGUGCUCCGUUGAAUGGAGUUUACCAUG — lower, ≤ -4.2
- GGAUCUUCUCGAUCUAACAAAAAAGACAAAUCUGCCACAACGAUUGAGAGCAUCUUCGGAUGCAGAGGCGGCAGCCUUCGGUGGCGCGAUCGCGCCAAUGUUCUCAACUAUGUCACGCAAAACGCGUGCUCCGUUGAAUGGAGUUUAUCAUG — lower, ≤ -4.2
- GGAUCUUCUCGAUCUAACAAAAAAGACAAAUCUGCCACAACGAUUGAGAGCAUCUUCGGAUGCAGAGGCGGGAGCCUACGGUGGCGCGAUAGCGCCAAUGUUCUCAACUAUGACACGCAAAACGCGUGCUCCGUUGAAUGGAGUUUAUCAUG — lower, ≤ -4.2
- GGAUCUUCUCGAUCUAACAAAAAAGACAAAUCUGCCACAACGUUUGAGAGCAUCUUCGGGUGCAGAGACGGCAGCCUUCGGUGGCUCGAUAGCGCCAACGUUCUCAACUAUGACACGCAAAGCGCGUGCUCCGUUGAAUGGAGUUUAUCAUG — lower, ≤ -4.2
- GGAUCUUCUCGAUCUAACAAAAAAGACAAAUCUGCCACAACGUUUGAGAGCAUCUUCGUAUGCAGAGGAGGCAGCUUUCGGUGGCGCGAUAGCGCCAACGUUCUCAACUAUGACACGCAAAACGCGUGCUCCGUUGAAUGGAGUUUAUCAUG — lower, ≤ -4.2
- GGAUCUUCUCGAUCUAACAAAAAAGACAAAUCUGCCACAACGUUUGAGAGCAUCUUCGGAUGCAGAGGCGGCAGCCUUCGGUGCCGCGAUAGCGCCAACGUUCUCAACUAUGACACGCAAAACGCGUGCUCCGUUGAAUGGAGUUUAUCAUG — lower, ≤ -4.2
- GGAUCUUCUCGAUCUAACAAAAAAGACAAAUCUGCCACAACGCUUGAGAGUAUCUUCGGAUGCACAGGCGGCAGCCUUCGGUGGCGCGAUAGCGCCAACGUUCUCAACUAUGACACGCAAAACGCGUGCUCCGUUCAAUGGAGUUUAUCAUG — lower, ≤ -4.2
- GGAUCUUCUCGAUCUAACAAAAAAGACAAAUCUGCCACAACGCUUGAGAGUAUCUUCGGAUGCAGAGGCGGCAGCCUUCGGUGGCUCGAUAGUGCCAACGUUCUCAACUAUGACACGUAAAACGCGUACUCCGUUGAAUGGAGUUUAUCAUG — lower, ≤ -4.2
- GGAUCUUCUCGAUCUAACAAAAAAGACAAAUCUGCCACAACGCUUGAGAGCAUGUUCGGAUGCAGAGGCGGCAGCCUUCGGUGGUGCGAUAGCGCCAACGUUCUCGACUAUGACACGCAAAACGCAUGCUCCGUUGACUGGAGUUUAUCAUG — lower, ≤ -4.2
- GGAUCUUCUCGAUCUAACAAAAAAGACAAAUCUGCCACAACGCUUGAGAGCAUGUUCUGAUGCAGAGGCGGCAGCCUUCGGUGGCGCGAUAGCUCCAACGUUCUCAACUAUGACACGCAAAACGCGUCCUCCGUUGAAUGGAGUUUAUCAUG — lower, ≤ -4.2
- GGAUCUUCUCGAUCUAACAAAAAAGACAAAUCUGCCACAACGCUUGAGAGCAUUUUGGGAUGCAGACGCGGCAGCCUUCGGUCGCGCGAUAGCGCCAACGUUCUCAACUAUGACACGCAAAACGCGUGCUUCGUUGAAUGGAGAUUAUCCUG — lower, ≤ -4.2
- GGAUCUUCUCGAUCUAACAAAAAAGACAAAUCUGCCACAACGCUUGAGAGCAUUUUCGGAUGCAGAGGCGGCAGCCUUCGGUGGAGCGAUAGCGCCAACGUUAUCAACUAUGACACACAAAACGCGUGCUCCCUUGUAUGGAGUUUAUCAUG — lower, ≤ -4.2
- GGAUCUUCUCGAUCUAACAAAAAAGACAAAUCUGCCACAACGCUUGAGAGCAUUUUCGGAUGCAGAUGCGGCAGCCUUCGGUGGCGCGAUAGCGCCAACGUUCUCAACUAUGACACGCAAAACGCGUGCUCCGUUGAACGGAGUUUAUCAUG — lower, ≤ -4.2
- GGAUCUUCUCGAUCUAACAAAAAAGACAAAUCUGCCACAACGCUUGAGAGCAUCUUAGGAUGCAGAGGCGGCAGCCUUCGGUGGCGCGAUAGCGCCAAGGUUCCCAACUAUGACACGCAAAACGCCUGCUCCGUUGAAUGGAGGUUAUCAUG — lower, -3.09
- GGAUCUUCUCGAUCUAACAAAAAAGACAAAUCUGCCACAACGCUUGAGAGCAUCUUGGGAUGCAGAGGCGGCAGCCUUCGGUAGCGCGAUAGCGCCAACGUUCUCAAAUAUGACACGCAAAACGCGUGCUCCAUUGAAUGGAGUUUAUCAUG — lower, ≤ -4.2
- GGAUCUUCUCGAUCUAACAAAAAAGACAAAUCUGCCACAACGCUUGAGAGCAUCUUUGGAUGCAGAGGCGGCAGCCUUCGGUGGGGCGAUAGCGCCAACGUUCUCAACUAUGACACACAAAACGCGUGCUCCGUUGAAUGGAGUUUAUGAUG — lower, ≤ -4.2
